# Source: article PMC4336329 (PLoS ONE, 2015)
# The whole screen tested about 310,000 compounds, of which about 14,000 (4.5%) showed an effect of 50% or more. Effects have a minus sign here. The list shows a part of the results.
# Biological target: human ether-à-go-go-related gene (hERG) potassium channel (human, UniProt Q12809)
# Test: primary screen, population patch clamp on CHO cells stably expressing hERG
# 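Also: peak tail current of the secondary pulse compared with the same well before compound.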
# Sequence of human ether-à-go-go-related gene (hERG) potassium channel (Q12809 whole entry, looked up): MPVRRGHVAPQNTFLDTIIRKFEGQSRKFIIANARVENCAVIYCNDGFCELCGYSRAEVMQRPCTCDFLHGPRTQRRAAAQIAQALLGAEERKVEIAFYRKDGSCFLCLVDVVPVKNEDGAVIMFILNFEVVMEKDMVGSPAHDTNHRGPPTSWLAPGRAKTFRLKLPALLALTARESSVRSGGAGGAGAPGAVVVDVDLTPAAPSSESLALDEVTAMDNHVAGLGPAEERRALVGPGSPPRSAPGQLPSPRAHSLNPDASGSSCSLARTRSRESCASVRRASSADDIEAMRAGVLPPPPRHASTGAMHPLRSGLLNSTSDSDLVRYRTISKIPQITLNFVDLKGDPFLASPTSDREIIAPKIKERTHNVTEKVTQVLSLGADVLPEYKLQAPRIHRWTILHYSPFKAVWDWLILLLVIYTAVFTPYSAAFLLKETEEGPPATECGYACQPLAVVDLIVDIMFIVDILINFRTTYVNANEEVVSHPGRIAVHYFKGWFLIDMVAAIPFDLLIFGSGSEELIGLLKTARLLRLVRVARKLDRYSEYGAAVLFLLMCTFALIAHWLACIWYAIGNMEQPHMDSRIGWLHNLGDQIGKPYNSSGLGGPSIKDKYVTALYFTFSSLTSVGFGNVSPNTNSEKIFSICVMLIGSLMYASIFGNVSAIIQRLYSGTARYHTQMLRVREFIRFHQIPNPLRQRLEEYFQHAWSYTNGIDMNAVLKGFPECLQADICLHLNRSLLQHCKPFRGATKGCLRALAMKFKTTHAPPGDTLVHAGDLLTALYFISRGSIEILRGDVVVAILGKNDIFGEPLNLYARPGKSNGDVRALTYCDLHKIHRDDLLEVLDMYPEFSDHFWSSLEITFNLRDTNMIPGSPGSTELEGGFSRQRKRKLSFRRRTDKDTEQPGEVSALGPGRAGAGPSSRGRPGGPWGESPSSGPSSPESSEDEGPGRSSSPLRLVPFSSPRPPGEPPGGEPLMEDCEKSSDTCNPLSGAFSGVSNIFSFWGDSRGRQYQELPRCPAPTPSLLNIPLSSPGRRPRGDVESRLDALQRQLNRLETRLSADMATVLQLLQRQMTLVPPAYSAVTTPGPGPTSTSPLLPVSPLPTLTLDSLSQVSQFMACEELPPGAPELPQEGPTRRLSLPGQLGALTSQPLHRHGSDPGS
row,SMILES,"hERG current change (%, negative = inhibition) at 10uM [%]"
1,CC(C)Nc1nc(Cl)nc(NC(C)C)n1,21
2,CN1C(=O)SC(Nc2ccc(F)cc2)C1=O (stereo not drawn),12.7
3,O=C(NN1C(=O)C2C3C=CC(C3)C2C1=O)c1ccccc1 (stereo not drawn),15.9
4,Cc1cccc(-n2c(CNC(=O)c3ccc(S(=O)(=O)N4CCCC4)cc3)n[nH]c2=S)c1,-4.21
5,COc1ccc(OC2CCN(S(=O)(=O)c3ccc(C(C)=O)cc3)CC2)cc1,-19.7
6,Cc1ccc(C)c(N(C)S(=O)(=O)c2ccc3[nH]cc(C(=O)NCCN4CCOCC4)c(=O)c3c2)c1,-12.3
7,N#Cc1nc(-c2ccc(OCc3ccc(Cl)cc3)cc2)oc1N1CCC(C(N)=O)CC1,10.4
8,Cc1nn(S(=O)(=O)c2cccc([N+](=O)[O-])c2)c(C)c1S(=O)(=O)N1CCOCC1,13.2
9,Cc1ccccc1NC(=O)c1cccc(OCc2c(C)noc2C)c1,-17.2
10,Cc1ccc(C(=O)COC(=O)c2ccc(O)cc2)cc1,16.4
11,CN(CCOc1ccc(F)cc1)Cc1ccccc1.O=C(O)C(=O)O,-23.3
12,CCCS(=O)(=O)N1CCC(C(=O)NCCc2ccc(C)cc2)CC1,-10.7
13,O=C(c1cc(-c2cccs2)on1)N1CCN(c2ccccc2)CC1,-16.7
14,CCOC(=O)c1cnn(-c2ncnc3sc(CC)cc23)c1N,10.9
15,Cc1ccc(-c2noc(C3CCCN(C(=O)C4CCCCC4)C3)n2)o1 (stereo not drawn),-7.48
16,COc1cc(/C=C2/SC(=Nc3ccc(O)cc3)NC2=O)cc(OC)c1O,12.8
17,CC(C)C(=O)N(Cc1ccccc1)S(=O)(=O)c1ccc2c(c1)oc(=O)n2C,-5.06
18,COc1ccc(NC(=S)NNS(=O)(=O)c2ccc3ccccc3c2)c(OC)c1,9.9
19,Cc1cc(C(=O)OCC(=O)Nc2ccc(F)cc2F)c(C)n1C1CC1,9.85

row,SMILES,"hERG current change (%, negative = inhibition) at 10uM [%]"
1,Cn1c(SCc2nc3cc(C(=O)O)ccc3c(=O)[nH]2)nnc1C(F)(F)F,2.37
2,Cc1cc(C)cc(NC(=O)COC(=O)c2ccc3c(c2)OCCO3)c1,7.14
3,Cl.c1coc(Cn2nnnc2CN2CCN(C3CCCC3)CC2)c1,-20
4,O=C(O)CC(C(=O)Nc1ccc(Cl)cc1)N1CCCCCC1 (stereo not drawn),19.9
5,CCOc1ccc(C(=O)NCC(=O)NNC(=O)CN(C)S(=O)(=O)c2ccc(Cl)cc2)cc1,14.8
6,OC[C@H]1O[C@H](OC[C@H]2OC(O)[C@H](O)[C@@H](O)[C@@H]2O)[C@H](O)[C@@H](O)[C@@H]1O (stereo partly drawn),12.9
7,O=C(CCC1CCCN(C(=O)c2ccc3c(c2)OCO3)C1)NCc1ccc(F)c(F)c1 (stereo not drawn),-8.73
8,O=C(Nc1nnc(C2CC2)s1)C1CC(=O)N(c2ccc3c(c2)OCCO3)C1 (stereo not drawn),-2.13
9,CC(C)Oc1ccc(S(=O)(=O)N2CCCCC2)cc1NC(=O)C1CCCC1,-15
10,C=C(C)CSc1nc2c(c(=O)[nH]c(=O)n2C)n1Cc1ccccc1,-12.3
11,CC(C)(SC(=S)N1CCOCC1)C(=O)O,8.01
12,CCOc1ccc(NC(=O)CN(C)C(=O)CCc2ccccc2Cl)cc1OCC,-25.2
13,O=C(COC(=O)c1ccccn1)NCc1ccccc1,2.45
14,Cn1c(CNC(=O)c2ccco2)nnc1SCC(=O)Nc1cccc(F)c1,4.12
15,CC(C)(CO)NCc1cccc(OCc2ccc(Cl)cc2)c1,-30.8
16,COc1ccccc1/C=C1/C(=O)ON=C1C,12.5
17,O=C(Nc1cccnc1)C1=NN(C2CCS(=O)(=O)C2)C(=O)CC1 (stereo not drawn),21.2
18,COc1cccc(-n2c(CN3CCN(c4ccc(C)cc4)C(C)C3)nc3ccc([N+](=O)[O-])cc3c2=O)c1 (stereo not drawn),-6.99
19,CCC(=NCCc1c(C)[nH]c2ccc(C)cc12)C1=C(O)CC(c2ccccc2)CC1=O (stereo not drawn),3.02

row,SMILES,"hERG current change (%, negative = inhibition) at 10uM [%]"
1,COc1ccc(CNC(=O)C(=O)NCC2OCCN2S(=O)(=O)c2ccccc2)cc1 (stereo not drawn),1.17
2,COc1ccc(OCC(=O)Nc2ccc(N3CCCCC3)cc2)cc1,13.9
3,CC(/C=C/c1cccc([N+](=O)[O-])c1)=N\NC(=O)c1ccncc1,-46.5
4,COC(=O)Cc1cc(=O)n2[nH]c(C)c(-c3ccccc3)c2n1,9.6
5,CCC1Oc2ccccc2N(CC(=O)NCCC2=CCCCC2)C1=O (stereo not drawn),3.64
6,COc1ccc(C2(C(=O)N3CCOCC3)CCOCC2)cc1OC,22.5
7,CCCN1C(=O)/C(=N\OCC(=O)NCC(F)(F)F)c2ccccc21,-2.52
8,Cc1nn(-c2ccccc2)c(C)c1CN,-5.52
9,C=CC[N+](C)(C)CC(=O)OCc1ccccc1.[Br-],1.34
10,Cc1cc(C)nc(SCc2cn3cc(Cl)ccc3n2)n1,-15.2
11,COc1ccc2c(c1)cc1c(=O)n(CC(=O)NCCCOC(C)C)nc(C)n12,19.1
12,CN(C)c1cc(N)c2ccccc2n1.O=C(O)c1cc(=O)[nH]c(=O)[nH]1,-18.5
13,CCOCCCNC(=O)/C=C1\Sc2ccccc2N(Cc2ccccc2F)C1=O,-9.66
14,CCCCN1CCCCC1C(=O)Nc1c(C)cccc1C.Cl (stereo not drawn),-1.6
15,CSc1ccccc1NC(=S)Nc1cc(C)cc(C)c1,12.2
16,CCN(c1ccc(C)cc1C)S(=O)(=O)c1nnc(NC(=O)C(C)C)s1,18.2
17,Cc1cc(C)cc(NC(=O)C2CCCN2S(=O)(=O)c2cccc3cccnc23)c1 (stereo not drawn),-4.26
18,COc1ccc(C(=O)N2CCC(C(=O)c3ccc(F)cc3)CC2)cc1,-70.2
19,O=C(N/N=C/c1cccs1)/C(=C/c1ccccc1)NC(=O)c1ccccc1,-24.1
